# Source: PubChem BioAssay AID602393 (Broad Institute, 2012)
# Out of some 350,000 compounds screened, about 7,000 (2%) were called active. Inconclusive results, whose numbers are uncertain, are shown with a selection of clear calls. Cut-off read from the data, not from the text of the source: active = activation above about 40%; inconclusive = no clear call, values can overlap the other calls; inactive = below that.
# Experiment: raisers of Bmi1 knock-in reporter signal – mouse ES cells, Bmi1 luciferase knock-in, single point, esBAF inhibitor project, primary screen (AID 602393);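 note: 0% = median of the plate's neutral control wells and 100% = double that signal; a rise in the Bmi1 reporter signal indicates esBAF inhibition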
# Settings: 24 h, at 12.5 µM, hits give high values, 100% = twice the neutral-well signal
row,SMILES,reporter increase
1,CCn1nccc1C(=O)Nc1ccc(C(=O)OC(C)C)cc1,inconclusive: 40.6%
2,CCC(=O)NCCc1nc2cc(NC(=O)c3ccc(OC)cc3)ccc2n1C,inconclusive: 42.1%
3,Cc1nn(-c2ccccc2)c(N)c1N=Nc1ccc2ccccc2c1,inconclusive: 41.9%
4,Cc1cc(NC(=O)NC(=O)c2ccccc2)no1,inconclusive: 46.6%
5,CC(C)Cc1cc(C(=O)Nc2ccc(Br)cc2)no1,active: 69.3%
6,NC(=O)c1c(NC(=O)c2ccccc2)sc2c1CCCC2,inconclusive: 51.4%
7,O=C(NNC(=O)c1cc(-c2cccnc2)nc2ccccc12)Nc1ccc(Cl)cc1,inconclusive: 44.5%
8,O=C(Nc1ccc(F)c(Cl)c1)c1cc(C2CCCN(C(=O)C3CC3)C2)on1 (stereo not drawn),active: 76.6%
9,Oc1ccc(Cl)cc1-c1cc(-c2ccccc2Cl)[nH]n1,inconclusive: 35.7%
10,CCCOc1ccc(-c2csc3nc[nH]c(=O)c23)cc1,inconclusive: 43%
11,CC(=O)n1cc(/C=N/NC(=O)c2ccc(Cl)cc2)c2ccccc21,inconclusive: 40%
12,O=C(CCN1CCCCC1)N[C@@H]1CC[C@@H](CCn2cc(-c3ccccc3)nn2)O[C@@H]1CO,inactive: 0.833%
13,COc1ccc(NC(=O)CN(C)C(=O)c2n[nH]c3ccccc23)cc1,inconclusive: 40.7%
14,O=C(Nc1ccc(Cl)cc1)NN1CCCCCC1,inconclusive: 41%
15,O=C(Nc1nccs1)c1ccc(COc2ccccc2Cl)o1,inconclusive: 43.7%
16,N#C/C(=C/c1ccc(N2CCCCC2)o1)C(=O)Nc1ccc(Cl)cc1,active: 59.8%
17,COc1cccc(NC(=O)C2CC2)c1,inactive: 8.99%
18,Cc1cccc(OCc2nc(-c3nonc3N)no2)c1C,inconclusive: 44.9%
19,CN(C)c1ccc(CNC(=O)CN(C)S(=O)(=O)c2ccc3c(c2)c(=O)n(C)c(=O)n3C)cc1,inactive: -3.34%
20,CCc1c(C)nc2cc(-c3cccs3)[nH]n2c1=O,active: 48.4%

row,SMILES,reporter increase
1,Nc1ccc(C(=O)Oc2ccc([N+](=O)[O-])cc2)cc1,inconclusive: 54.4%
2,CC(C)CC#Cc1cnc2c(c1)C(=O)N([C@@H](C)CO)C[C@H](C)[C@@H](CN(C)S(=O)(=O)c1cccs1)O2,inactive: 4.38%
3,CC1CCCCC12NC(=O)N(CC(=O)NC(=O)Nc1ccc3c(c1)OCCO3)C2=O (stereo not drawn),active: 56.7%
4,Cn1nnc2cc(NC(=O)Nc3cccc(Cl)c3)ccc21,inconclusive: 32%
5,C/C(NC(=O)c1ccccc1F)=C1\C(=O)C[C@@H]2[C@H]1C2(C)C,inconclusive: 42.3%
6,c1cncc(-c2nc3ccccc3s2)c1,inconclusive: 36.7%
7,O=C(NC(=S)Nc1cccnc1Cl)c1ccc(Cl)cc1,inconclusive: 42.2%
8,CCOc1ccc(N(CC(=O)NCc2ccccc2C)S(C)(=O)=O)cc1,inconclusive: 56.2%
9,Cc1cc2cc(C#N)c(SCC(=O)Nc3nonc3C)nc2cc1C,inconclusive: 42%
10,O=C(OCc1ccccc1)N1CCC2CC1c1cc(/C=C/CCCSc3ncccn3)ccc12 (stereo not drawn),inconclusive: 42%
11,Cc1cccc(N=C2NN=C(c3c[nH]c4ccccc34)CS2)c1,inconclusive: 42.5%
12,O=C(Nc1ccccc1F)NC1CCCCCCC1,active: 53.9%
13,O=C(CSc1nc2ccccc2[nH]1)c1cccs1,active: 79.4%
14,O=C(/C=C/c1ccc2c(c1)OCO2)NCc1ccncc1,inconclusive: 40.2%
15,COc1ccc(OC)c(Cc2nnc(CCC(=O)NC3CCCCCCC3)o2)c1,inconclusive: 41.7%
16,COc1ccc(-c2nnc(-c3ccc4ccccc4c3)o2)cc1,inconclusive: 40.5%
17,CC(C)C1C(=O)N(Cc2cn(CCC3OCCCO3)nn2)CCS(=O)(=O)N1Cc1ccc(-c2ccc(Cl)nc2)cc1 (stereo not drawn),inconclusive: 40.9%
18,O=C(Nc1ccc(N2CCOCC2)c(Cl)c1)c1ccc(F)cc1,inconclusive: 41.5%
19,O=C(COc1ccc2ccccc2c1)NC1CC1,inconclusive: 44.5%
20,COC(=O)C1=C(C)NC2=C(C(=O)CC(C)(C)C2)C1c1cccc(C)n1 (stereo not drawn),inactive: 0.996%

row,SMILES,reporter increase
1,O=C(C1=C(O)C(=O)N(c2nc3ccc(Cl)cc3s2)C1c1ccco1)c1ccco1 (stereo not drawn),inconclusive: 40.5%
2,COc1ccc2[nH]cc(C(=O)CN3CCC(C)CC3)c2c1,inactive: 29.6%
3,CC(=O)Oc1cc(O)c2c(=O)c(OC(C)=O)c(-c3ccc(OC(C)=O)c(OC(C)=O)c3)oc2c1,active: 43.1%
4,Cc1ccc(N=Nc2c(O)n(CN3CCOCC3)c3ccccc23)cc1,active: 53.8%
5,C#CCn1c2ccccc2c2nc3ccccc3nc21,inconclusive: 51.6%
6,O=C(Cc1ccccn1)NCC[C@H]1CC[C@@H](NS(=O)(=O)c2ccc(F)cc2)[C@@H](CO)O1,inactive: 2.76%
7,O=C1Nc2ccccc2N=C(c2ccc3c(c2)OCO3)C1N(CCc1ccccc1)C(=O)CSc1ncccn1 (stereo not drawn),inconclusive: 45%
8,CCOc1ccc(/C=N/Nc2nc(C)cs2)c(O)c1,inconclusive: 44.7%
9,COc1ccc(C(=O)c2sc(Nc3ccccc3)nc2N)cc1OC,inactive: -30.9%
10,COC(=O)c1ccc2c(c1)C(=O)/C(=C/c1ccc(O)cc1)O2,inconclusive: 41.8%
11,Brc1ccc(CSc2nnc3ccccn23)cc1,inconclusive: 38.4%
12,O=C(Nc1ccc(N2CCCC2)c(Cl)c1)c1ccccc1F,inconclusive: 55.5%
13,C[C@@H]1CN([C@H](C)CO)S(=O)(=O)c2ccc(C3=CCCC3)cc2O[C@@H]1CN(C)Cc1ccccn1,inactive: 0.48%
14,O=C(c1cccs1)n1cc(C(=S)N2CCOCC2)c2ccccc21,inactive: -8.48%
15,c1ccc(N2CCN(c3nc(NCc4ccco4)c4ccccc4n3)CC2)cc1,inactive: -17.4%
16,O=C(NCc1ccc(C(F)(F)F)cc1)c1ccc(-c2cccnc2)c2ccoc12,inconclusive: 44.7%
17,COc1cc2c(cc1/C=C1/NC(=O)N(c3ccccc3)C1=O)OCO2,inconclusive: 40.1%
18,O=C1/C(=C/c2cccs2)SC(=S)N1c1ccccc1,inactive: 36.3%
